According to the supplement of paper PMC8728848:
Some of the results follow.

What was measured:
Assay in all cases: glycan array binding signal (z-score within array); higher = stronger binding
Details in all cases: glycan notation: IUPAC condensed, linker removed
[1] = target: Fuc(a1-2)[Gal(a1-3)]Gal(b1-4)GlcNAc(b1-2)Man(a1-3)[Fuc(a1-2)[Gal(a1-3)]Gal(b1-4)GlcNAc(b1-2)Man(a1-6)]Man(b1-4)GlcNAc(b1-4)[Fuc(a1-6)]GlcNAc
Procedure, shortened: (§1)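 Negative Z-scores can be read as non-binding. The Z-score is calculated within each array and then averaged across arrays of one protein sequence at different concentrations or buffers and across linkers. Arrays, 3228 in all, were curated from the Consortium for Functional Glycomics database and kept only where the protein sequence was available.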

[2] = target: Fuc(a1-2)[Gal(a1-3)]Gal(b1-4)GlcNAc(b1-3)GalNAc
Procedure, shortened: as §1

[3] = target: Fuc(a1-2)[Gal(a1-3)]Gal(b1-4)GlcNAc(b1-3)[Fuc(a1-2)[Gal(a1-3)]Gal(b1-4)GlcNAc(b1-6)]GalNAc
Procedure, shortened: as §1

[4] = target: Fuc(a1-2)[Gal(a1-3)]Gal(b1-4)GlcNAc(b1-6)GalNAc
Procedure, shortened: as §1

[5] = target: Fuc(a1-2)[Gal(a1-3)]Gal(b1-4)[Fuc(a1-3)]Glc
Procedure, shortened: as §1

[6] = target: Fuc(a1-2)[Gal(a1-3)]Gal(b1-4)[Fuc(a1-3)]GlcNAc
Procedure, shortened: as §1

[7] = target: Fuc(a1-2)[Gal(a1-3)]Gal(b1-4)[Fuc(a1-3)]GlcNAc(b1-3)GalNAc
Procedure, shortened: as §1

[8] = target: Fuc(a1-2)[Gal(a1-4)]Gal(b1-4)GlcNAc
Procedure, shortened: as §1

[9] = target: Fuc(a1-2)[GalNAc(a1-3)]Gal
Procedure, shortened: as §1

[10] = target: Fuc(a1-2)[GalNAc(a1-3)]Gal(b1-3)GalNAc(a1-3)[Fuc(a1-2)]Gal(b1-4)GlcNAc
Procedure, shortened: as §1

[11] = target: Fuc(a1-2)[GalNAc(a1-3)]Gal(b1-3)GalNAc(b1-3)Gal(a1-4)Gal(b1-4)Glc
Procedure, shortened: as §1

[12] = target: Fuc(a1-2)[GalNAc(a1-3)]Gal(b1-3)GlcNAc
Procedure, shortened: as §1

[13] = target: Fuc(a1-2)[GalNAc(a1-3)]Gal(b1-3)GlcNAc(b1-2)Man(a1-3)[Fuc(a1-2)[GalNAc(a1-3)]Gal(b1-3)GlcNAc(b1-2)Man(a1-6)]Man(b1-4)GlcNAc(b1-4)GlcNAc
Procedure, shortened: as §1

[14] = target: Fuc(a1-2)[GalNAc(a1-3)]Gal(b1-3)GlcNAc(b1-2)Man(a1-3)[Fuc(a1-2)[GalNAc(a1-3)]Gal(b1-3)GlcNAc(b1-2)Man(a1-6)]Man(b1-4)GlcNAc(b1-4)[Fuc(a1-6)]GlcNAc
Procedure, shortened: as §1

[15] = target: Fuc(a1-2)[GalNAc(a1-3)]Gal(b1-3)GlcNAc(b1-3)GalNAc
Procedure, shortened: as §1

[16] = target: Fuc(a1-2)[GalNAc(a1-3)]Gal(b1-3)GlcNAc(b1-6)GalNAc
Procedure, shortened: as §1

[17] = target: Fuc(a1-2)[GalNAc(a1-3)]Gal(b1-4)Glc
Procedure, shortened: as §1

[18] = target: Fuc(a1-2)[GalNAc(a1-3)]Gal(b1-4)GlcNAc
Procedure, shortened: as §1

[19] = target: Fuc(a1-2)[GalNAc(a1-3)]Gal(b1-4)GlcNAc(b1-2)Man
Procedure, shortened: as §1

[20] = target: Fuc(a1-2)[GalNAc(a1-3)]Gal(b1-4)GlcNAc(b1-2)Man(a1-3)[Fuc(a1-2)[GalNAc(a1-3)]Gal(b1-4)GlcNAc(b1-2)Man(a1-6)]Man(b1-4)GlcNAc(b1-4)GlcNAc
Procedure, shortened: as §1

[21] = target: Fuc(a1-2)[GalNAc(a1-3)]Gal(b1-4)GlcNAc(b1-2)Man(a1-3)[Fuc(a1-2)[GalNAc(a1-3)]Gal(b1-4)GlcNAc(b1-2)Man(a1-6)]Man(b1-4)GlcNAc(b1-4)[Fuc(a1-6)]GlcNAc
Procedure, shortened: as §1

[22] = target: Fuc(a1-2)[GalNAc(a1-3)]Gal(b1-4)GlcNAc(b1-3)Gal(b1-4)GlcNAc
Procedure, shortened: as §1

[23] = target: Fuc(a1-2)[GalNAc(a1-3)]Gal(b1-4)GlcNAc(b1-3)Gal(b1-4)GlcNAc(b1-3)Gal(b1-4)GlcNAc
Procedure, shortened: as §1

[24] = target: Fuc(a1-2)[GalNAc(a1-3)]Gal(b1-4)GlcNAc(b1-3)GalNAc
Procedure, shortened: as §1

[25] = target: Fuc(a1-2)[GalNAc(a1-3)]Gal(b1-4)GlcNAc(b1-3)[Fuc(a1-2)[GalNAc(a1-3)]Gal(b1-4)GlcNAc(b1-6)]GalNAc
Procedure, shortened: as §1

[26] = target: Fuc(a1-2)[GalNAc(a1-3)]Gal(b1-4)GlcNAc(b1-6)GalNAc
Procedure, shortened: as §1

[27] = target: Fuc(a1-2)[GalNAc(a1-3)]Gal(b1-4)[Fuc(a1-3)]GlcNAc
Procedure, shortened: as §1

[28] = target: Fuc(a1-2)[GalNAc(a1-3)]Gal(b1-4)[Fuc(a1-3)]GlcNAc(b1-3)GalNAc
Procedure, shortened: as §1

[29] = target: Fuc(a1-2)[GalNAc(a1-4)]Gal(b1-4)GlcNAc
Procedure, shortened: as §1

[30] = target: Fuc(a1-2)[GalNAc(b1-3)]Gal
Procedure, shortened: as §1

B1: Nc3LysM (protein)
chain: QFTVPPDTTAEPNTIKTCTWWHVAGSGDSCTSIASTYGITSEQFARWDMETTDSPKNPSVATACKLTVGNSYCIENNFGQDDPPTPSISSSTLIGTATTSTTASTTTGNGISTPTPIQEGMETATTTTSSGNGITTPTPTQAGMETVGNCDRFHLVKSGDQCGTIASTYGITLANFYSWNPAVGTSCQSLWLDTYVCVRTIGFVPPKTTTTTTKKPTSTTSAGGVATPTPTQPGMETVSGCKKFHKGRGNVSTVASGDQCGTIATRYGISLANFYSWNPAVGSSCQTLWLDYYVCVGR
- glycan array binding signal (z-score) [1]: -0.173
- glycan array binding signal (z-score) [2]: -0.13
- glycan array binding signal (z-score) [3]: 0.055
- glycan array binding signal (z-score) [4]: 0.042
- glycan array binding signal (z-score) [5]: 0.064
- glycan array binding signal (z-score) [6]: -0.157
- glycan array binding signal (z-score) [7]: -0.263
- glycan array binding signal (z-score) [8]: -0.013
- glycan array binding signal (z-score) [9]: -0.143
- glycan array binding signal (z-score) [10]: -0.106
- glycan array binding signal (z-score) [11]: -0.291
- glycan array binding signal (z-score) [12]: -0.047
- glycan array binding signal (z-score) [13]: -0.071
- glycan array binding signal (z-score) [14]: -0.078
- glycan array binding signal (z-score) [15]: 0.023
- glycan array binding signal (z-score) [16]: -0.237
- glycan array binding signal (z-score) [17]: -0.009
- glycan array binding signal (z-score) [18]: 0.012
- glycan array binding signal (z-score) [19]: -0.174
- glycan array binding signal (z-score) [20]: -0.066
- glycan array binding signal (z-score) [21]: -0.117
- glycan array binding signal (z-score) [22]: -0.11
- glycan array binding signal (z-score) [23]: -0.189
- glycan array binding signal (z-score) [24]: -0.14
- glycan array binding signal (z-score) [25]: -0.211
- glycan array binding signal (z-score) [26]: -0.165
- glycan array binding signal (z-score) [27]: 0.237
- glycan array binding signal (z-score) [28]: -0.076
- glycan array binding signal (z-score) [29]: -0.204
- glycan array binding signal (z-score) [30]: -0.092
